Experimental data published in the supplement of paper PMC3656093.
± gives the standard deviation of the averaged measurements. Over roughly 1,900 compounds, “CD40L-induced NF-kB luciferase activity, plate-corrected, relative to DMSO (0) and IKK inhibitor VII (-100) controls” has its median near 0.032; the lowest 2% begin near -26. This is one part of the list.

test system: BL2-NFkB-Luc; assay: CD40L-induced NF-kB luciferase activity, plate-corrected, relative to DMSO (0) and IKK inhibitor VII (-100) controls (% normalized activity); higher = more NF-kB reporter activity (less inhibition); conditions: 9.4 µM; stimulus: tCD40L 64 ng/ml; 4.5 h
Procedure: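 BL2 B cells with a stable NF-kB response-element luciferase reporter (BL2-NFkB-Luc), 384-well. Cells were pre-incubated with compound at 9.4 uM for 1 h at 37 C, then stimulated with 64 ng/ml trimerized CD40L for 4.5 h; luciferase was read with Steady-Glo. Signal was normalised per plate in Genedata (median DMSO neutral control = 0, median IKK inhibitor VII at 50 uM = -100) with Assay Median plate-pattern correction; duplicate plates.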

Compound	CD40L-induced NF-kB luciferase activity
COc1ccc(C2=NOC(COc3ccc4c(C)cc(=O)oc4c3)C2)c(OC)c1 (centres undefined)	-9.39 ± 1.8
COc1ccc(C2C3CCCCC3(O)CCN2C(=O)c2cccs2)cc1 (centres undefined)	-4.72 ± 0.72
NC(=O)c1c(-c2ccccc2)oc2ccc(O)cc12	7.57 ± 1.8
CCn1c(C)cc2c(c1=O)C(c1ccccc1)C(C(=O)OC)=C(N)O2 (centres undefined)	-4.6 ± 5.5
CCCC(=O)Nc1ccc(OCC(O)CNC(C)C)c(C(C)=O)c1 (centres undefined)	-2.11 ± 0.99
CC(=O)OCC(=O)[C@@]12OC3(CCCC3)O[C@@H]1C[C@H]1[C@@H]3CCC4=CC(=O)C=C[C@]4(C)[C@@]3(F)[C@@H](O)C[C@@]12C	-20.2 ± 1.1
CS(=O)(=O)c1cccc(C(=O)Oc2ccccc2)c1	2.62 ± 9
CCC(=O)Oc1ccc(C(=O)Nc2ccc([N+](=O)[O-])cc2)cc1	-5.48 ± 0.55
COCCN(CCOC)Cc1c(C)[nH]c2c(C)c(C)ccc2c1=O	-3.25 ± 1.1
Cc1cnc(N)c2c(=O)oc3ccccc3c12	41.69 ± 0.28
Cc1[nH]c2ccccc2c1C(=O)C(=O)NCc1ccco1	1.92 ± 1.9
Cc1ccc(S(=O)(=O)NC(C(=O)Oc2cc3oc(=O)cc(C)c3cc2Cl)C(C)C)cc1 (centres undefined)	-3.08 ± 0.98
CCOc1ccc2nc(N/C(N)=N/S(C)(=O)=O)nc(C)c2c1	23.4 ± 2.7
CC1(c2ccccc2)CC(C)(C)N2C(=O)C(=O)c3cccc1c32 (centres undefined)	2.28 ± 6.5
CCOc1ccc(C(NC(C)=O)c2ccc(OC)c(OC)c2)cc1 (centres undefined)	4.36 ± 0.088
CC1=CC(=O)c2ccccc2C1=O	0.889 ± 1.8
CC(C)(C)c1csc(NN=Cc2cccnc2)n1	0.734 ± 7.6
CN(C)CCOc1ccccc1Cc1ccccc1	0.196 ± 5
CC1/C(=C\c2ccc(Cl)cc2)C(=O)C2CC1C2(C)C (centres undefined)	3.76 ± 2.7
COc1ccc(S(=O)(=O)NC(Cc2cnc[nH]2)C(=O)O)cc1 (centres undefined)	0.792 ± 2.4
COc1ccccc1/C=C/C(=O)OCCN1CCOCC1	2.92 ± 4.6
CCCCC1C(=O)N(c2ccccc2)N(c2ccccc2)C1=O	1.43 ± 1.1
C#CCN1C(=O)C(O)(CC(=O)c2ccc(OC)c(OC)c2)c2ccccc21 (centres undefined)	-10.7 ± 1.5
Clc1ccc(COC(Cn2ccnc2)c2ccc(Cl)cc2Cl)cc1 (centres undefined)	-9.29 ± 1.8
Cc1ccc(S(=O)(=O)N[C@@H](C)C(=O)N2CCC(C(=O)N3CCC[C@H]3C(=O)O)CC2)cc1	-9.89 ± 4

Compound	CD40L-induced NF-kB luciferase activity
COC(=O)C1=C(C)N(Cc2ccco2)C(=O)/C1=C\c1ccc([N+](=O)[O-])cc1	0.281 ± 1.1
CC(C)(C)C(=O)NC(=S)Nc1sc2c(c1C(N)=O)CCC2	47.45 ± 0.25
O=C(O)CCCCCNC(=O)Nc1ccc2c(c1)OCCO2	8.86 ± 3.5
O=C(CC(NC(=O)OCc1ccccc1)C(=O)O)OCc1ccccc1 (centres undefined)	-14.2 ± 13
Cc1cccc2c(C(=O)O)cc(-c3cccnc3)nc12	-1.99 ± 8.5
O=C1CCCN1C(=O)CCC(=O)N1CCCC1=O	0.218 ± 1.1
COc1ccc(C2NC(=O)c3ccccc3O2)c(OC)c1OC (centres undefined)	-3.71 ± 0.48
Nc1ccc(N=Nc2ccccc2)c(N)n1	51.91 ± 0.45
CCN(CC)C(=O)N1CCN(C)CC1	-0.022 ± 1.5
CC(C)COc1ccc(Cc2cnc(N)nc2N)cc1	1.68 ± 7.6
CC12CCC(C(=O)N(CCC#N)CCC#N)(CC1=O)C2(C)C (centres undefined)	-5.66 ± 4.4
COc1ccc(C2c3c(n[nH]c3C)CC(C)(O)C2C(C)=O)cc1OC (centres undefined)	2.22 ± 1.9
CCN(CCCc1ccccc1)CCCc1ccccc1	-5.18 ± 5.5
CC[C@]1(O)C[C@@H]2CN(CCc3c([nH]c4ccccc34)[C@@](C(=O)OC)(c3cc4c(cc3OC)N(C)[C@H]3[C@@](O)(C(=O)OC)[C@H](OC(C)=O)[C@]5(CC)C=CCN6CC[C@]43[C@@H]65)C2)C1	-54.7 ± 1.7
O=C(O)CCCCCCNC(=O)c1cncc(O)c1	-4.33 ± 1.9
CC1(C)C(=O)OC(C(=O)c2ccc(Cl)cc2)C(C)(C)C1=O (centres undefined)	-1.2 ± 6.3
Nc1ccc2nc(Cc3ccccc3)[nH]c2c1	14.3 ± 4.9
CN(C)CCC(c1ccccc1)c1ccccn1 (centres undefined)	-6.28 ± 5.6
N/C(=N\OC(=O)/C=C/c1ccccc1)c1ccc(Br)cc1	25.8 ± 4.5
CC(=O)Nc1ccccc1C(=O)C(=O)Nc1ccccc1	12.6 ± 1.1
Cc1ccccc1OCC(O)CN1CCN(C)CC1 (centres undefined)	0.245 ± 1.5
CC(=O)OC(C)C[N+](C)(C)C (centres undefined)	-11.8 ± 0.65
CCCCOc1ccc(CC(=O)NO)cc1	-7.75 ± 8.3
O=C(Cc1ccccc1)NNC(=O)Cc1ccccc1	1.84 ± 4.9
C=CCc1ccccc1OCC(O)CNC(C)C (centres undefined)	1.14 ± 1.7

Compound	CD40L-induced NF-kB luciferase activity
C=CC1=C(C(=O)O)N2C(=O)C(NC(=O)Cc3ccccc3)C2SC1 (centres undefined)	1.93 ± 1.4
CCOCCCNCc1cn(-c2ccc(F)cc2F)nc1-c1ccccc1C	-1.93 ± 4.1
CCOC(=O)c1cccc(P(C)(C)=O)c1	-6.36 ± 1.2
COc1c(C=O)c(CCN(C)C(=O)c2ccc(F)cc2)cc2c1OCO2	-2.45 ± 4.7
CC1(C)Cc2ccccc2-c2nc(-c3ccccc3)oc(=O)c21	2.15 ± 0.84
CC(=O)Oc1c2occc2cc2ccc(=O)oc12	-0.883 ± 7.4
COc1cc(C2C(C(=O)c3ccc(C)o3)=C(O)C(=O)N2Cc2cccnc2)ccc1O (centres undefined)	1.73 ± 4.7
O=c1nc2n(c3c1oc1ccccc13)Cc1ccccc1-2	79 ± 5.7
COCCCC/C(=N/OCCN)c1ccc(C(F)(F)F)cc1	-0.271 ± 6.8
COc1ccc(CCNC(=S)NC(=O)/C=C/c2ccc(C)cc2)cc1OC	-1.18 ± 1.3
COc1ccccc1C(CC(=O)Nc1ccccc1C)c1ccc(OC(C)C)cc1 (centres undefined)	-11.4 ± 4.7
Cc1ccc2c(c1)C(O)(c1c(C)[nH]c3ccccc13)C(=O)N2 (centres undefined)	3.92 ± 8.9
OCCC1CN(Cc2ccccc2-c2ccco2)CCN1C1CCCC1 (centres undefined)	-1 ± 8.2
Clc1cc(-c2ccc(C=Nn3cnnc3)o2)ccc1Br	10.1 ± 5.1
Cc1c(OC(=O)CNC(=O)OC(C)(C)C)ccc2c3c(c(=O)oc12)CCC3	3.02 ± 3.5
C=CCC1(O)C(=O)N2C(=C1C(=O)N1CCOCC1)c1ccccc1CC2(C)C (centres undefined)	-4.07 ± 3.1
O=C(/C=C/Sc1ccccc1)c1ccccc1	-1.27 ± 2.9
CCCCC[C@H](O)/C=C/[C@@H]1[C@@H](CCCCCCC(=O)O)[C@@H](O)C[C@H]1O	-29.5 ± 5.2
COC(=O)CN1CC(=O)N(c2ccccc2)C1=S	-1.87 ± 2.5
O=C(O)C1CSC(c2ccc3c(c2)OCO3)N1 (centres undefined)	3.84 ± 4.1
COc1cccc(N2C(=O)CC(c3c[nH]c4ccccc34)C2=O)c1 (centres undefined)	7.818 ± 0.02
Cn1c(=O)c2c(ncn2CC(O)CO)n(C)c1=O (centres undefined)	-3.18 ± 3.4
CC12CCCCN1CCCc1c2[nH]c2ccccc12 (centres undefined)	-1.68 ± 4.1
NC(=O)c1cccnc1	-3.39 ± 4
